# From a collection of fitness landscapes (doi:10.1016/j.celrep.2020.107928)
# Whole data set: some 81,000 sequences, median “one-hybrid fitness for binding parS DNA” near -0.17, cut for the highest 2% near 0.51. This is one part of the list.
# B1: Caulobacter ParB omega fusion; a variant is named by its letters at X, in order, B8GW30 (parent)
# chain: MESVVVGEPGMSEGRRGLGRGLSALLGEVDAAPAQAPGEQLGGSREAPIEILQRNPDQPRRTFREEDLEDLSNSIREKGVLQPILVRPSPDTAGEYQIVAGERAWRAAQRAGLKTVPIMVRELDDLAVLEIGIIENVQRADLNVLEEALSYKVLMEKFERTQENIAQTIGKSXSHVANXMRLLXLPDEVQSYLVSGELTAXHARAIAAAADPVALAKQIIEGGLSVRETEALARKAPNLSAGKSKGGRPPRVKDTDTQALESDLSSVLGLDVSIDHRGSTGTLTITYATLEQLDDLCNRLTRGI
# Variants of: B1
# Experiment: one-hybrid fitness for binding parS DNA (scaled: cognate 1, non-cognate 0); higher = stronger binding
# Conditions: with parS DNA site
# In short: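 Selection: bacterial one-hybrid in E. coli USO, HIS3 reporter with the site 19 bp from the promoter, 48 hours at 37°C on M9-minus-histidine plus 0.1 mM IPTG and 5 mM 3-AT. Libraries were Caulobacter ParB with four randomised specificity codons, sequenced on Illumina before and after selection. Fitness is the rescaled log change in variant-to-wild-type read ratio, anchored to the cognate and non-cognate sites.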
row,Variant,one-hybrid fitness for binding parS DNA
1,HLGH,≤ 0.2
2,FSTM,≤ 0.2
3,NLKN,≤ 0.2
4,ACYC,≤ 0.2
5,IQNT,≤ 0.2
6,QDPR,≤ 0.2
7,MDKS,≤ 0.2
8,VYAR,≤ 0.2
9,DPPR,≤ 0.2
10,GMGR,≤ 0.2
11,MSPI,≤ 0.2
12,YKAR,≤ 0.2
13,PLRL,≤ 0.2
14,FVYT,≤ 0.2
15,CACF,≤ 0.2
16,PKPE,≤ 0.2
17,QQNR,≤ 0.2
18,LQNS,≤ 0.2
19,LAST,≤ 0.2
20,WGTG,≤ 0.2
21,DGGN,≤ 0.2
22,IMTC,≤ 0.2
23,QVQV,≤ 0.2
24,TWLI,≤ 0.2

row,Variant,one-hybrid fitness for binding parS DNA
1,NPPC,≤ 0.2
2,EYPV,≤ 0.2
3,KWRR,≤ 0.2
4,PGKG,≤ 0.2
5,QPSQ,≤ 0.2
6,PTEP,≤ 0.2
7,PANG,≤ 0.2
8,ELSE,≤ 0.2
9,MLSI,≤ 0.2
10,DMLY,≤ 0.2
11,GFFG,≤ 0.2
12,THWI,≤ 0.2
13,HNVN,≤ 0.2
14,GTDL,≤ 0.2
15,ATAQ,≤ 0.2
16,ARQN,≤ 0.2
17,NWWC,≤ 0.2
18,VRPV,≤ 0.2
19,IGAS,≤ 0.2
20,IGRI,≤ 0.2
21,KMLR,≤ 0.2
22,IDIS,≤ 0.2
23,QYRE,≤ 0.2
24,MSQM,≤ 0.2

row,Variant,one-hybrid fitness for binding parS DNA
1,CLSW,≤ 0.2
2,VRRQ,≤ 0.2
3,DYFC,≤ 0.2
4,RALA,0.612
5,MKKR,≤ 0.2
6,LAGY,≤ 0.2
7,QCPW,≤ 0.2
8,CTCT,≤ 0.2
9,HNMA,≤ 0.2
10,QSEL,≤ 0.2
11,QALS,≤ 0.2
12,RVAR,≤ 0.2
13,LTHG,≤ 0.2
14,NGQV,≤ 0.2
15,ATRQ,≤ 0.2
16,ESTF,≤ 0.2
17,SETA,≤ 0.2
18,SYVC,≤ 0.2
19,AHKM,≤ 0.2
20,MECR,≤ 0.2
21,MTKH,≤ 0.2
22,LLLY,≤ 0.2
23,QHNC,≤ 0.2
24,ALMS,≤ 0.2

row,Variant,one-hybrid fitness for binding parS DNA
1,QWAY,≤ 0.2
2,TGFC,≤ 0.2
3,DILR,≤ 0.2
4,ASTD,≤ 0.2
5,ISEG,≤ 0.2
6,VHVC,≤ 0.2
7,VRKE,≤ 0.2
8,FVAS,≤ 0.2
9,DILS,≤ 0.2
10,AIQY,≤ 0.2
11,PPTV,≤ 0.2
12,VTTT,≤ 0.2
13,LHAG,≤ 0.2
14,YNNE,≤ 0.2
15,FTKK,≤ 0.2
16,QGDF,≤ 0.2
17,RQSL,≤ 0.2
18,KAAN,≤ 0.2
19,GGYG,≤ 0.2
20,TWNC,≤ 0.2
21,QLYE,≤ 0.2
22,WHGR,≤ 0.2
23,SRRL,≤ 0.2
24,PSRC,≤ 0.2

row,Variant,one-hybrid fitness for binding parS DNA
1,SSHP,≤ 0.2
2,SGAV,≤ 0.2
3,SSSG,≤ 0.2
4,QLEY,≤ 0.2
5,TLTS,≤ 0.2
6,FTNC,≤ 0.2
7,ERAG,≤ 0.2
8,RAGN,0.448
9,RREA,0.802
10,FCGR,≤ 0.2
11,RIWI,≤ 0.2
12,PRLL,≤ 0.2
13,PFAT,≤ 0.2
14,WSEM,≤ 0.2
15,CYNT,≤ 0.2
16,WAPG,≤ 0.2
17,SRYK,≤ 0.2
18,SHHY,≤ 0.2
19,RSRF,0.281
20,PGYW,≤ 0.2
21,FNLC,≤ 0.2
22,QDNN,≤ 0.2
23,DAPA,≤ 0.2
24,AVKG,≤ 0.2

row,Variant,one-hybrid fitness for binding parS DNA
1,QKSW,≤ 0.2
2,SHWT,≤ 0.2
3,QQRA,≤ 0.2
4,ELHS,≤ 0.2
5,TCQA,≤ 0.2
6,GSPN,≤ 0.2
7,CRFS,≤ 0.2
8,HRTN,≤ 0.2
9,MQRR,≤ 0.2
10,RHFH,≤ 0.2
11,KYKV,≤ 0.2
12,TTRK,≤ 0.2
13,QKAE,≤ 0.2
14,SSTW,≤ 0.2
15,ALVL,≤ 0.2
16,KLWM,≤ 0.2
17,RRAQ,≤ 0.2
18,IWKL,≤ 0.2
19,RQSW,0.241
20,CMQC,≤ 0.2
21,LEFM,≤ 0.2
22,QSHL,≤ 0.2
23,KYRW,≤ 0.2
24,QRKA,≤ 0.2

row,Variant,one-hybrid fitness for binding parS DNA
1,ILAR,≤ 0.2
2,RWLI,≤ 0.2
3,SIET,≤ 0.2
4,RHRT,0.788
5,FTTR,≤ 0.2
6,PTRI,≤ 0.2
7,KKCG,≤ 0.2
8,HMAN,≤ 0.2
9,EECR,≤ 0.2
10,VLNY,≤ 0.2
11,IVPS,≤ 0.2
12,QLPP,≤ 0.2
13,ATCA,≤ 0.2
14,MWQS,≤ 0.2
15,SPDN,≤ 0.2
16,VTPV,≤ 0.2
17,VPAV,≤ 0.2
18,KRPF,≤ 0.2
19,QHSP,≤ 0.2
20,WYNC,≤ 0.2
21,RLCT,0.923
22,HLKN,≤ 0.2
23,ESDR,≤ 0.2
24,CVHC,≤ 0.2

row,Variant,one-hybrid fitness for binding parS DNA
1,AYAY,≤ 0.2
2,PAKD,≤ 0.2
3,ITVP,≤ 0.2
4,NGTY,≤ 0.2
5,KQSE,≤ 0.2
6,SMKV,≤ 0.2
7,LSFI,≤ 0.2
8,GSSN,≤ 0.2
9,PQDC,≤ 0.2
10,FWRY,≤ 0.2
11,VFRG,≤ 0.2
12,PLDD,≤ 0.2
13,WMRC,≤ 0.2
14,NMSS,≤ 0.2
15,NTLL,≤ 0.2
16,NTSH,≤ 0.2
17,CVTT,≤ 0.2
18,MCQS,≤ 0.2
19,HNAK,≤ 0.2
20,QQPI,≤ 0.2
21,SYQK,≤ 0.2
22,MRPT,≤ 0.2
23,LKYC,≤ 0.2
24,WTRW,≤ 0.2

row,Variant,one-hybrid fitness for binding parS DNA
1,PCNS,≤ 0.2
2,ITMK,≤ 0.2
3,HVQL,≤ 0.2
4,AAMQ,≤ 0.2
5,RRHK,≤ 0.2
6,LHEG,≤ 0.2
7,RICC,0.92
8,HCIY,≤ 0.2
9,YPIR,≤ 0.2
10,DATG,≤ 0.2
11,VYMW,≤ 0.2
12,MHCR,≤ 0.2
13,SQAQ,≤ 0.2
14,NNVT,≤ 0.2
15,TWFK,≤ 0.2
16,NTKL,≤ 0.2
17,HGYT,≤ 0.2
18,PADL,≤ 0.2
19,EMSG,≤ 0.2
20,ARCC,≤ 0.2
21,THKF,≤ 0.2
22,HLVN,≤ 0.2
23,PPAQ,≤ 0.2
24,MGWW,≤ 0.2

row,Variant,one-hybrid fitness for binding parS DNA
1,PRNI,≤ 0.2
2,PRYV,≤ 0.2
3,QMSL,≤ 0.2
4,RKLH,0.223
5,FHNQ,0.318
6,DRHG,≤ 0.2
7,WLGC,≤ 0.2
8,STWT,≤ 0.2
9,SVSV,≤ 0.2
10,RQYY,0.494
11,PDYR,≤ 0.2
12,QYKK,≤ 0.2
13,IRAV,≤ 0.2
14,TWYR,≤ 0.2
15,VTLE,≤ 0.2
16,SPMY,≤ 0.2
17,HKVC,≤ 0.2
18,QVER,≤ 0.2
19,APQY,≤ 0.2
20,HSEQ,≤ 0.2
21,CFTM,≤ 0.2
22,SMTC,≤ 0.2
23,QKKF,≤ 0.2
24,DSRW,≤ 0.2

row,Variant,one-hybrid fitness for binding parS DNA
1,PWPC,≤ 0.2
2,CIRD,≤ 0.2
3,MMLG,≤ 0.2
4,IFKT,≤ 0.2
5,SCQY,≤ 0.2
6,AQHW,≤ 0.2
7,QCCA,≤ 0.2
8,TKET,≤ 0.2
9,LMNG,≤ 0.2
10,GCIS,≤ 0.2
11,HCSE,≤ 0.2
12,WNCL,≤ 0.2
13,RKER,≤ 0.2
14,TQLQ,≤ 0.2
15,YLSC,≤ 0.2
16,LRRA,≤ 0.2
17,RQTD,0.217
18,HHSP,≤ 0.2
19,QSKE,≤ 0.2
20,QPYN,≤ 0.2
21,QFIM,≤ 0.2
22,VWYT,≤ 0.2
23,VYMC,≤ 0.2
24,YAYT,≤ 0.2

row,Variant,one-hybrid fitness for binding parS DNA
1,EQRF,≤ 0.2
2,TSGS,≤ 0.2
3,MHAT,≤ 0.2
4,QVLA,≤ 0.2
5,APAM,≤ 0.2
6,DMSS,≤ 0.2
7,HQTG,≤ 0.2
8,REHW,≤ 0.2
9,LYAV,≤ 0.2
10,QTML,≤ 0.2
11,TWSG,≤ 0.2
12,SYQW,≤ 0.2
13,DVHC,≤ 0.2
14,QAWW,≤ 0.2
15,CRTL,≤ 0.2
16,RNGP,≤ 0.2
17,RQMD,≤ 0.2
18,TIPM,≤ 0.2
19,PRFH,≤ 0.2
20,KRIP,≤ 0.2
21,RRTC,0.616
22,CQCL,≤ 0.2
23,KGKV,≤ 0.2
24,GTAD,≤ 0.2

row,Variant,one-hybrid fitness for binding parS DNA
1,SNYS,≤ 0.2
2,GNPR,≤ 0.2
3,DATL,≤ 0.2
4,GSQC,≤ 0.2
5,QELQ,≤ 0.2
6,CAKG,≤ 0.2
7,ACWL,≤ 0.2
8,QPVH,≤ 0.2
9,NTNE,≤ 0.2
10,KGEV,≤ 0.2
11,ILGL,≤ 0.2
12,AKAR,≤ 0.2
13,LLIV,≤ 0.2
14,NALV,≤ 0.2
15,QYHE,≤ 0.2
16,CGNI,≤ 0.2
17,DRKS,≤ 0.2
18,PTWW,≤ 0.2
